Results as given in article PMC4336329 (PLoS ONE, 2015).
In all, about 310,000 compounds went through this assay and about 14,000 (4.5%) showed an effect of 50% or more. The effect is printed as a negative number. The list shows a part of the results.

Target: human ether-à-go-go-related gene (hERG) potassium channel (human, UniProt Q12809)
Experiment: primary screen, population patch clamp on CHO cells stably expressing hERG
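Also: peak tail current of the secondary pulse compared with the same well before compound.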

Sequence of human ether-à-go-go-related gene (hERG) potassium channel (Q12809 whole entry, looked up): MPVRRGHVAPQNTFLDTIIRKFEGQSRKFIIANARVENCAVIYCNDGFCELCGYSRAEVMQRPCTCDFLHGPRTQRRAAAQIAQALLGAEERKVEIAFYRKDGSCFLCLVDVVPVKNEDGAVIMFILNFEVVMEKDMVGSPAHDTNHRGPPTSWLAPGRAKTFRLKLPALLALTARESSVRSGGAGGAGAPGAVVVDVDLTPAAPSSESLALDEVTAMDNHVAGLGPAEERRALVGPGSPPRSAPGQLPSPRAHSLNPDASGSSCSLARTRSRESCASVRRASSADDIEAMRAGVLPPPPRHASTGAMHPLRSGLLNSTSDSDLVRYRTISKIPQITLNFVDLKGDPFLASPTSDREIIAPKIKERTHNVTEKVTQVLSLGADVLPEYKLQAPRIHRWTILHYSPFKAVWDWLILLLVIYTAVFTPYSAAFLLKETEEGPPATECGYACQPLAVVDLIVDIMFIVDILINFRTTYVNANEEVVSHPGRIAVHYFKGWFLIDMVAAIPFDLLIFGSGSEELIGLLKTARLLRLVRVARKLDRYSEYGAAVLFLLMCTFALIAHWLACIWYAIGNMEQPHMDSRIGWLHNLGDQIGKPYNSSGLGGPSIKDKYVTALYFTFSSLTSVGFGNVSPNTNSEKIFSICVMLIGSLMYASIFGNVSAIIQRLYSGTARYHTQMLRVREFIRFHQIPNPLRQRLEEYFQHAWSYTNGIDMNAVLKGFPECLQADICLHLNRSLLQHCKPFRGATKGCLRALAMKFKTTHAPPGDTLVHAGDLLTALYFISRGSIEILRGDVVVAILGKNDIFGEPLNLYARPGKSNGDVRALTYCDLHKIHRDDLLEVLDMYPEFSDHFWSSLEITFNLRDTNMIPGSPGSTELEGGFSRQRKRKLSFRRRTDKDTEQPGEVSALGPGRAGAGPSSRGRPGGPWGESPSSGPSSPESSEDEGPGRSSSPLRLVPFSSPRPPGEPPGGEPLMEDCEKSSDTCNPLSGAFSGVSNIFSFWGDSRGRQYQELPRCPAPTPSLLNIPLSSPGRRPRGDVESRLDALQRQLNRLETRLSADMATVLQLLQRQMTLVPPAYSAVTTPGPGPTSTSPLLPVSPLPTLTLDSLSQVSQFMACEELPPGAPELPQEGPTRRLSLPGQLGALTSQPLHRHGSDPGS

| Structure (SMILES) | hERG current change (%, negative = inhibition) at 10uM [%] |
| --- | --- |
| O=C(CSc1nnnn1-c1ccc(F)cc1)Nc1ccccc1F | 16 |
| CCOC(=O)c1nnn(-c2nonc2N)c1CN(C)Cc1ccccc1 | -3.78 |
| CCOc1ccc2oc(C(=O)N3CCN(c4ccccn4)CC3)c(C)c2c1 | -34.3 |
| O=C(NC1CCCC1)c1ccc(Cl)c(S(=O)(=O)N2CCOCC2)c1 | -27.2 |
| CC(NC(=O)Nc1cccnc1)(C(F)(F)F)C(F)(F)F | 5.1 |
| CN1CCN(c2ccc(F)cc2N)CC1 | 23.3 |
| C=CCn1c(SCc2ccc(C(=O)Nc3ccccc3)cc2)nnc1-c1ccccc1 | -5.06 |
| CCCN1C(=O)c2ccccc2NC1c1ccc(Cl)c(Cl)c1 (stereo not shown) | 6.85 |
| Nn1c(SCC(=O)NC(=O)Nc2ccc3c(c2)OCCO3)nnc1C1CC1 | 14.3 |
| CCC(C)NS(=O)(=O)c1ccc(OCC(=O)N2CCCCC2)cc1 (stereo not shown) | 2.66 |
| Cc1ccc(O)c(-c2cc(C(=O)Nc3ccc(S(=O)(=O)Nc4nccc(C)n4)cc3)[nH]n2)c1 | 6.81 |
| O=C(Nc1ccc2oc(-c3ccncc3)nc2c1)c1ccc(F)cc1 | -23.9 |
| COc1ccc(CCNC(=O)Cn2nnc(C(=O)Nc3cccc(C)c3C)c2N)cc1OC | 12.9 |
| CC(=O)Nc1ccc(S(=O)(=O)N2CCN(CCC#N)CC2)cc1 | 17.2 |
| CCn1cc(/C=C(\NC(=O)c2ccc(OC)c(OC)c2)C(=O)N2CCN(C)CC2)c2ccccc21 | -32.8 |
| C/C(=N\OCc1nc2ccccc2c(=O)n1/N=C/c1cc([N+](=O)[O-])ccc1O)c1ccccc1 | 1.69 |
| CCN(C(=O)CSc1nnc(-c2ccccc2Br)o1)C1CCS(=O)(=O)C1 (stereo not shown) | -16.3 |
| Cc1ccsc1C(=O)N(C)C1CCS(=O)(=O)C1 (stereo not shown) | -1.25 |
| Cc1ccc(-c2nnc(SCC(=O)N/N=C/c3ccc(C(=O)O)cc3)n2C2CCCCC2)cc1 | 13.4 |
| CCC1CCCCN1S(=O)(=O)c1ccc(NC(=O)C2CCCO2)cc1 (stereo not shown) | -8.34 |
| Cc1cc(N2C(=O)C(O)=C(C(=O)c3cccs3)C2c2ccccc2)no1 (stereo not shown) | -5.34 |
| CCCc1nnc(NC(=O)CC(C)c2ccccc2)s1 (stereo not shown) | 2.66 |

| Structure (SMILES) | hERG current change (%, negative = inhibition) at 10uM [%] |
| --- | --- |
| Cc1nc(-c2ccncc2)nc(NCCNc2ncccc2C(F)(F)F)c1Cl | 6.57 |
| COc1cc(/C=C2\SC(=O)NC2=O)ccc1OCc1ccc(Cl)nc1 | 26.2 |
| CCOC(=O)c1nc(N)c(=O)n(-c2ccc(C)cc2)n1 | 17.8 |
| CN(C(=O)Cn1c(=O)oc2cc(S(=O)(=O)N3CCCC3)ccc21)C1CCCCC1 | 37.1 |
| CS(=O)(=O)N1CCCC(C(=O)Nc2ccc(F)c(F)c2)C1 (stereo not shown) | 9.55 |
| Cc1ccc(C(=O)N/C(=C\c2ccccc2)C(=O)NCc2ccncc2)cc1 | -71.2 |
| COc1cc(S(=O)(=O)Nc2cc(C)cc(C)c2)ccc1F | -48.3 |
| CCN(CC)C(=O)CSc1ncnc2c(-c3cccs3)nsc12 | 4.67 |
| CN(C)S(=O)(=O)c1ccc(NC(=O)c2c(F)cccc2Cl)cc1 | -0.755 |
| O=c1oc(Nc2cccc(F)c2)nc2ccccc12 | 2.1 |
| Cc1ccc(C)c2[nH]c(=O)c(CN(CCN3CCOCC3)Cc3nnnn3CC3CCCO3)cc12 (stereo not shown) | -15.8 |
| CCn1c(CNC(=O)COc2ccc(C(C)C)cc2)nnc1SCC(=O)Nc1ccccc1C(C)C | -55.1 |
| CC(C)CCN1CCN(CC(c2ccccc2)c2ccccc2)CC1CCO (stereo not shown) | -82.3 |
| O=C(NCc1cccnc1)C(=O)NCC1OCCCN1S(=O)(=O)c1ccccc1 (stereo not shown) | 18.6 |
| O=c1sc(Nc2ccccc2)nc2ccsc12 | -5.98 |
| CCOc1ccc(C(=O)Nc2ccc(S(=O)(=O)Nc3nccc(C)n3)cc2)cc1OCC | -6.53 |
| O=C(COc1ccccc1)Nc1c2c(nn1-c1ccccc1)CS(=O)C2 (stereo not shown) | -1.23 |
| CC(=O)c1cc2c(cc1NC(=O)c1ccco1)OCCO2 | 12.1 |
| COC(=O)c1ccc(NC(=S)N2CCN(C(=O)c3ccco3)CC2)cc1 | -4.94 |
| COc1cccc(CN(C)C(=O)c2sccc2-c2ccccc2)c1OC | -14 |
| Cc1cccnc1-n1c(CCN2C(=O)c3ccccc3C2=O)nc2ccccc2c1=O | 4.82 |
| O=C1c2ccccc2C(=O)N1c1cccnc1 | 2.01 |

| Structure (SMILES) | hERG current change (%, negative = inhibition) at 10uM [%] |
| --- | --- |
| COc1ccc(-n2c(C)cc(C(=O)COc3ccc(C)nc3[N+](=O)[O-])c2C)cc1 | -22.8 |
| CC(=O)c1ccc(OCC(=O)N2CCCC(N(C)Cc3ccccc3)C2)cc1 (stereo not shown) | -29.1 |
| CCOCCCn1c(SCC(=O)Nc2ccc3[nH]c(=O)[nH]c3c2)nc2ccccc2c1=O | 7.61 |
| COc1ccc(CCNC(=O)C2CCN(S(C)(=O)=O)CC2)cc1 | -9.7 |
| CCCn1c(SCCc2ccccc2)nc2c1c(=O)[nH]c(=O)n2C | -14.4 |
| O=C(NCCN1CCCCC1)Nc1ccccc1Cl | 19.7 |
| O=C(CN1C(=O)C2C3C=CC(C3)C2C1=O)Nc1nc(-c2ccccn2)cs1 (stereo not shown) | 2.18 |
| CC(C)c1[nH]nc2c1C(c1cccnc1)C(C#N)=C(N)O2 (stereo not shown) | 3.28 |
| CC(C)CC(=O)Nc1nc2c(c(=O)[nH]1)CCCC2 | 17.9 |
| O=C(CCNC(=O)c1ccccc1Cl)Nc1ccc2c(c1)OCO2 | 9.88 |
| FC(F)(F)c1cc(-c2ccccc2)nc(NCc2cccnc2)n1 | -1.1 |
| COc1cc(/C=C/C(=O)OCC(=O)N2CCc3ccccc3C2)ccc1O | -16.3 |
| CCN(CC)C(=O)CN1C(=O)c2cccc3cccc(c23)C1=O | 9.78 |
| COc1ccccc1C(=O)Nc1cccc2cccnc12 | 10.7 |
| O=C1CC(c2ccccc2F)C2=C(COC2=O)N1 (stereo not shown) | 1.43 |
| CCOc1ccccc1NC(=O)CSc1nnc(CNC(=O)c2c(F)cccc2Cl)o1 | -8.82 |
| Cc1noc(C)c1CC(=O)N1CCCC(N2CCN(c3ccccc3F)CC2)C1 (stereo not shown) | 3.91 |
| CC1=CC(C)C(/C=N/n2cnnc2)C(C)C1 (stereo not shown) | -3.91 |
| CC1CCCN(c2ccc([N+](=O)[O-])cc2C(=O)c2ccccc2)C1 (stereo not shown) | -6.64 |
| CCOc1ccc(NC(=O)C2C3CCC4C(CCC32)C4(Cl)Cl)cc1 (stereo not shown) | 14.5 |
| c1ccc(CSc2nnnn2-c2ccc3c(c2)OCCO3)nc1 | -2.3 |
| CC1CC(=O)N(c2ccc(N(C)Cc3ccccc3)c([N+](=O)[O-])c2)C1=O (stereo not shown) | -10.9 |

| Structure (SMILES) | hERG current change (%, negative = inhibition) at 10uM [%] |
| --- | --- |
| Cc1ccc(SCc2nc3ccccc3n2CC(=O)Nc2ccc(Cl)cc2)cc1 | -8.31 |
| O=c1c2ccccc2nc(N2CCCC2)n1-c1ccc(Cl)cc1 | -3.18 |
| FC(F)(F)c1ccnc(N2CCN(Cc3cnc(-c4ccccc4)[nH]3)CC2)c1 | -34.2 |
| CCOC(=O)N1CCC(NC(=O)c2cc(C(=O)NC3CCCC3)ccc2CO)CC1 | 12.9 |
| Cc1cc(NC(=O)c2ccc3c(c2)OCCO3)ccc1NC(=O)c1cc2ccccc2o1 | 1.3 |
| Cc1ccc(C(=O)/C=C/Nc2ccccc2C(N)=O)cc1 | 13 |
| Cc1noc(C)c1COC(=O)[C@H](C)NS(=O)(=O)c1ccc(Cl)c(Cl)c1 | -29.2 |
| CN(C1CCCCC1)S(=O)(=O)c1ccc(C(=O)O)cc1 | 7.49 |
| COc1ccc(OCC(=O)Nc2ccc(NC(=O)c3ccccc3Cl)c(OC)c2)cc1 | -17.4 |
| O=C(NN=C1CCCC1)C(=O)Nc1cccc(C(F)(F)F)c1 | 4.28 |
| COc1ccc(N(Cc2ccccc2)N=O)cc1 | -23.3 |
| CC1CCCC(C)N1/N=C/c1ccc(O)cc1 (stereo not shown) | 8.87 |
| CC(C)c1noc2ncc(C(=O)c3cc(Cl)cc(Cl)c3O)cc12 | 19 |
| COC(=O)C1=C(c2ccc(OC(F)(F)F)cc2)C[C@@H]2CC[C@H]1N2C(=O)NCc1cccc2ccccc12 | 20.4 |
| COc1ccc(C(=O)NCC(=O)c2ccccc2)cc1 | 13.8 |
| CSCC[C@H](NC(=O)c1ccco1)c1nnc2ccccn12 | 7.31 |
| Cc1cccc(N2C(=O)CS/C2=N\NC(=O)c2ccc(Br)cc2)c1C | -0.819 |
| COc1cccc(C(=O)NNC(=O)C(=O)Nc2cccc3ccccc23)c1 | 18.1 |
| Cc1ccc(C2=NN(CCC(=O)NC3CCCC3)C(=O)CC2)cc1 | -48.1 |
| O=C(C1=C[C@H](C2CC2)C[C@H](OCCCCO)O1)N1CCOCC1 | 21.2 |
| CC(C)c1c(C(=O)N/N=C/c2ccc(OCc3ccc(F)cc3)cc2)nnn1-c1nonc1N | 15.5 |
| CN1CCN(C(=S)NC(=O)c2cccc(S(=O)(=O)N(C)C)c2)CC1 | 18.6 |
